Experimental data taken from the supplement of paper PMC10338343.
± gives the standard deviation. The entries are a selection whose mix differs from that of the whole data set.

System: MIWI (PIWIL1) piRISC loaded with L1MC piRNA (30 nt)
Assay: pre-steady-state target cleavage rate (min^-1); MIWI and MILI are mouse PIWI proteins and EfPiwi is from a freshwater sponge; tags in brackets are library labels; higher = faster piRNA-guided slicing of the target
Details: guide: L1MC piRNA 5'p-UAACUAAAUACUAUGCAAGCUGUAGGUCCU; auxiliary factor: 500 nM mouse GTSF1
Summary of the method: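 A burst-and-steady-state fit was used to obtain the pre-steady-state cleavage rate. The input data were sequencing reads of uncleaved targets, normalised to depth and to weakly complementary targets, from a […] transcribed, DNA-blocked target RNA library mixed with 1 nM active affinity-purified piRISC holding one synthetic guide, with or without 500 nM GTSF1 partner protein, in HEPES–potassium acetate buffer at 33 °C for 0–8 or 0–960 min. Three trials were pooled and k3 was capped at 0.0001 min^-1.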
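Further: 1 nM active piRISC with 0.1 nM target library at 33 °C single turnover.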

| Sequence | pre-steady-state target cleavage rate |
| --- | --- |
| UCCUCCUACAGCUUGCAUAGUAUAAUGUAA | 0.16 ± 0.033 |
| UCCACCUACAGCUUCGAUAGUAUUUUCAAA | 0.00864 ± 0.0049 |
| UCCUGGAUGUCGUUGCUUUGUAUUUAGUUA | < 0.0001 |
| UCCUCCUACAGCUUGCAUAGUAAUUUCAAA | 0.264 ± 0.062 |
| UCCUGGAUGUCGAACGUAAGUAUUUACAAA | < 0.0001 |
| UCCUGGAUGUGCUUGCAUACUAUUUAGAAA | 0.0056 ± 0.0041 |
| UCCUGGAACAGCUUGCAUAGUAAUUAGAAA | 0.293 ± 0.055 |
| UCCUGCUACAGCUUGCAUACAAUUUAGUAA | 0.0165 ± 0.008 |
| UCGACCUACAGCUUGCAUAGUAUAUACAAA | 0.434 ± 0.069 |
| UCCUGGUACAGCUUGCAUAGUAUUUAUUA | 0.0685 ± 0.026 |
| UCCUGGAACAGCUUGCAUAGAUAUUUAGUUA | 0.00986 ± 0.0058 |
| UGGACCUACAGCUUGCAUAGUUAAAUCAAA [g10:g29:cont:t1A] | 0.0144 ± 0.0068 |
| UCCACCUACAGCUUGCAUAGUAUUAGUUA | 0.181 ± 0.028 |
| UCCACCUACAGCUUGCAUAGUAUUUUCAAA [g6:g27:cont:t1A] | 0.364 ± 0.052 |
| UCCUGGAUGAGCUUGCAUAGUCAUUUAGUUA | 0.00516 ± 0.004 |
| UCCUCCUACAGCUUGCAAUAGUAUUUAGUUA | 0.0962 ± 0.021 |
| AGGACCUACAGGUUGCAUAGUAUUUUCAAA | 0.396 ± 0.061 |
| UCCUGGAUGUGCUUGUCAUAGUAUUUAGUUA | 0.0124 ± 0.0039 |
| UCCUGCUACAGCUUGCAUAGUAUUUUCAAA | 0.335 ± 0.059 |
| UCCUGGAUGUCGAUGUAUAGUAUUUAGUUA | 0.0109 ± 0.0038 |
| UCCUGCUACAGCUACCAUAGUAUUUUCAAA | 0.0102 ± 0.0049 |
| UGGACCUACAGCUUCCAUAGUAAUUAGUUA | 0.0113 ± 0.0031 |
| UCCUGGUACAGCUUGCAUACUAUUUACAAA | 0.0733 ± 0.02 |
